Counter-ions that a name gives are not always drawn. This is one part of the list. Cut-off read from the data, not from the text of the source: active = -2 or less and inactive = the rest. Single values are uncertain, as repeats are few or missing.
The molecules below were run on hPSC-derived cortical neurons (WA09) (assay: nuclei number (viability) z-score; higher = more surviving cells). Conditions: 5 µM; treatment: days 7-14 after plating, readout day 21.
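Note: nuclei counted from DAPI counterstain by automated high-content image analysis, four fields per well at ×20 in 384-well plates, with sequential b-score then z-score normalization.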

| SMILES | nuclei number (z-score) |
| --- | --- |
| CC1=NN(c2ccccc2)C(=O)C1 [Edaravone] | inactive: -0.81 |
| CCOc1ccc2ccccc2c1C(=O)N[C@@H]1C(=O)N2[C@@H]1SC(C)(C)[C@@H]2C(=O)O [Nafcillin Sodium] | inactive: -0.307 |
| CCN(CC)CCNC(=O)c1cc(Cl)c(N)cc1OC [MetoclopraMide HCl] | inactive: 3.45 |
| C=C1/C(=C\C=C2/CCC[C@]3(C)[C@@H]([C@H](C)CCCC(C)C)CC[C@@H]23)C[C@@H](O)C[C@@H]1O [Alfacalcidol] | inactive: 2.25 |
| CCC[C@@H]1C[C@@H](C(=O)N[C@@H]([C@H]2O[C@H](SC)[C@H](O)[C@@H](O)[C@H]2O)[C@H](C)Cl)N(C)C1 [Clindamycin] | active: -2.43 |
| CCC[C@@H]1C[C@@H](C(=O)N[C@@H]([C@H]2O[C@H](SC)[C@H](O)[C@@H](O)[C@H]2O)[C@H](C)Cl)N(C)C1 [Clindamycin HCl] | inactive: -0.105 |
| CO[C@H]1/C=C\C=C(/C)C(=O)NC2=CC(=O)C(NCCN(C)C)=C(C[C@@H](C)C[C@H](OC)[C@H](O)[C@@H](C)/C=C(\C)[C@@H]1OC(N)=O)C2=O [17-DMAG (Alvespimycin) HCl] | active: -4.1 |
| O=C(N[C@H](CO)[C@H](O)c1ccc([N+](=O)[O-])cc1)C(Cl)Cl [Chloramphenicol] | inactive: -0.419 |
| O=C(O)CCNC(=O)c1ccccc1 [Betamipron] | inactive: 2.22 |
| CC(NC(=O)c1ccccc1/N=C/c1c(O)ccc2ccccc12)c1ccccc1 (configuration not stated) [Sirtinol] | inactive: 0.689 |
| Cc1cccc(-c2[nH]c(C(C)(C)C)nc2-c2ccc3c(c2)OCO3)n1 | inactive: 2.33 |
| CC(C)(OCc1nn(Cc2ccccc2)c2ccccc12)C(=O)O [Bindarit] | inactive: -0.198 |
| CCCN1CCCC[C@H]1C(=O)Nc1c(C)cccc1C [Ropivacaine HCl] | inactive: 1.12 |
| Cc1c(C(=O)NN2CCCCC2)nn(-c2ccc(Cl)cc2Cl)c1-c1ccc(I)cc1 | inactive: 1.77 |
| CCc1nc(N)nc(N)c1-c1ccc(Cl)cc1 [Pyrimethamine] | inactive: -0.273 |
| CC(C)NCC(O)COc1ccc(CCOCC2CC2)cc1 (configuration not stated) [Betaxolol HCl] | inactive: -0.32 |
| CC(C)NCC(O)COc1ccc(CCOCC2CC2)cc1 (configuration not stated) [Betaxolol] | inactive: 1.32 |
| CN1CC(=O)N2[C@H](c3ccc4c(c3)OCO4)c3[nH]c4ccccc4c3C[C@@H]2C1=O [Tadalafil] | inactive: -0.106 |
| CCN(C(=O)c1c(O)c2c(Cl)cccc2n(C)c1=O)c1ccccc1 [Laquinimod] | inactive: 2.03 |
| CCOc1nc2cccc(C(=O)OCc3oc(=O)oc3C)c2n1Cc1ccc(-c2ccccc2-c2noc(=O)[nH]2)cc1 [Azilsartan Medoxomil] | inactive: 0.8 |
| COc1ccc(NS(=O)(=O)c2sc3ccc(Cl)cc3c2C)cc1N1CCNCC1 | inactive: 0.942 |
| C1COC(NC(C2CC2)C2CC2)=N1 [Rilmenidine Phosphate] | inactive: 1.5 |
| COc1cc(OC2CCN(C)CC2)ccc1Nc1ncc2c(n1)n(C1CCCC1)c(=O)n2C | inactive: 0.349 |

| SMILES | nuclei number (z-score) |
| --- | --- |
| C#CCN[C@@H]1CCc2ccccc21 [Rasagiline Mesylate] | inactive: 0.579 |
| CCOC(=O)O[C@]1(C(=O)OCCl)CC[C@H]2[C@@H]3CCC4=CC(=O)C=C[C@]4(C)[C@H]3[C@@H](O)C[C@@]21C [Loteprednol etabonate] | inactive: -0.232 |
| CCc1c2c(nc3ccc(O)cc13)-c1cc3c(c(=O)n1C2)COC(=O)[C@]3(O)CC | inactive: -0.601 |
| CCN(C)S(=O)(=O)Nc1ccc(F)c(C(=O)c2c[nH]c3ncc(-c4cnc(C5CC5)nc4)cc23)c1F | inactive: 0.301 |
| O=C(NCC1(c2nc(-c3ccccc3)cs2)CCOCC1)c1cccc(-c2noc(C(F)(F)F)n2)c1 | inactive: 1.34 |
| CC(C)C(=O)Oc1ccc(CO)cc1[C@H](CCN(C(C)C)C(C)C)c1ccccc1 [Fesoterodine Fumarate] | inactive: 0.432 |
| Cc1nn(-c2ccccc2)c(C)c1C=NN1CCN(Cc2ccccc2)CC1 | inactive: 0.0858 |
| Cc1ccc(NC(=O)c2ccc(CN3CCN(C)CC3)cc2)cc1Nc1nccc(-c2cccnc2)n1 [Imatinib (STI571)] | inactive: -1.07 |
| Cc1ccc(NC(=O)c2ccc(CN3CCN(C)CC3)cc2)cc1Nc1nccc(-c2cccnc2)n1 [Imatinib Mesylate (STI571)] | inactive: 0.229 |
| O=C(O)C(=O)O.[NH-][C@@H]1CCCC[C@H]1[NH-].[Pt+2] [Oxaliplatin] | inactive: -0.167 |
| C[C@H]1c2cccc(O)c2C(=O)C2=C(O)[C@]3(O)C(=O)C(C(N)=O)=C(O)[C@@H](N(C)C)[C@@H]3[C@@H](O)[C@@H]21 [Doxycycline Hyclate] | inactive: 4.55 |
| C[C@H]1c2cccc(O)c2C(=O)C2=C(O)[C@]3(O)C(=O)C(C(N)=O)=C(O)[C@@H](N(C)C)[C@@H]3[C@@H](O)[C@@H]21 [Doxycycline HCl] | inactive: -0.522 |
| COc1cc2c(cc1OC)CC(=O)N(CCCN(C)C[C@H]1Cc3cc(OC)c(OC)cc31)CC2 [Ivabradine HCl] | inactive: -0.604 |
| Cc1c(C(=O)NN2CCCCC2)nn(-c2ccc(Cl)cc2Cl)c1-c1ccc(Cl)cc1 [Rimonabant] | inactive: -1.67 |
| COc1cc2c(c(OC)c1OC)-c1c(cc3c(c1OC)OCO3)CC(C)C(C)C2 (configuration not stated) [Schisandrin B (Sch B)] | inactive: 0.0425 |
| CCOC(=O)c1cnc2ccc(-c3cncc(NS(=O)(=O)c4ccccc4)c3)cn12 | inactive: 0.578 |
| C[C@](N)(Cc1ccc(O)c(O)c1)C(=O)O [Methyldopa] | inactive: -0.924 |
| C[C@@H](Nc1cc(F)cc(F)c1)c1cc(C(=O)N(C)C)cc2c(=O)cc(N3CCOCC3)oc12 | inactive: -0.229 |
| Clc1ccc(C(Cn2ccnc2)OCc2ccsc2Cl)c(Cl)c1 (configuration not stated) [Tioconazole] | inactive: -0.421 |
| COc1cc(C(=O)N2CCC(N3CCN(C)CC3)CC2)ccc1Nc1ncc2c(n1)N(C)c1ccccc1C(=O)N2C | active: -2.31 |
| COc1ccccc1S(=O)(=O)Nc1ccc2c(c1)CN(C)C(=O)N2 | inactive: 0.176 |
| FC(F)c1nc2ccccc2n1-c1nc(N2CCOCC2)nc(N2CCOCC2)n1 | inactive: 0.992 |
| CN(C(=O)CNC(=O)/C=C/c1cccc(Cl)c1)C1CCS(=O)(=O)CC1 | inactive: -0.178 |

| SMILES | nuclei number (z-score) |
| --- | --- |
| CCN1CCN(c2cc3c(cc2F)c(=O)c(C(=O)O)cn3C2CC2)CC1 [Enrofloxacin] | inactive: -0.203 |
| O=C1C2CC3CC1CC(O)(C3)C2 [Idramantone] | inactive: 0.172 |
| Cc1nnc(NS(=O)(=O)c2ccc(N)cc2)s1 [Sulfamethizole] | inactive: 1.15 |
| CC(C)Oc1ccc(C(=O)N[C@H](CNC(=O)CN(C)C)Cc2ccc(-c3cn4cccc([C@H](C)O)c4n3)cc2)cc1Cl | inactive: 0.432 |
| C[C@@H]1C[C@H]2[C@@H]3CCC4=CC(=O)C=C[C@]4(C)[C@@]3(F)[C@@H](O)C[C@]2(C)[C@@]1(O)C(=O)CO [Dexamethasone (DHAP)] | inactive: 2.25 |
| OC1(c2ccc(Cl)c(C(F)(F)F)c2)CCN(CCCC(c2ccc(F)cc2)c2ccc(F)cc2)CC1 [Penfluridol] | active: -4.44 |
| CC1(C)O[C@@H]2C[C@H]3[C@@H]4CCC5=CC(=O)C=C[C@]5(C)[C@@]4(F)[C@@H](O)C[C@]3(C)[C@]2(C(=O)CO)O1 [Triamcinolone Acetonide] | inactive: 0.0532 |
| O=C(O)CCCc1ccccc1 [Sodium Phenylbutyrate] | inactive: 0.651 |
| Cc1cnc(NC(=O)C2=C(O)c3ccccc3S(=O)(=O)N2C)s1 [Meloxicam] | inactive: -0.121 |
| CC(C)(Oc1ccc(C(=O)c2ccc(Cl)cc2)cc1)C(=O)O [Fenofibric acid] | inactive: 0.633 |
| Cc1cc([C@@H](C)Nc2ccccc2C(=O)O)c2nc(N3CCOCC3)cc(=O)n2c1 | inactive: 0.141 |
| CCOc1nc2cccc(C(=O)O)c2n1Cc1ccc(-c2ccccc2-c2noc(=O)[nH]2)cc1 [Azilsartan] | active: -7.05 |
| COCCOC(=O)C1=C(C)NC(C)=C(C(=O)OC/C=C/c2ccccc2)C1c1cccc([N+](=O)[O-])c1 (configuration not stated) [Cilnidipine] | inactive: -0.161 |
| O=c1c(-c2ccc(O)cc2)coc2c([C@@H]3O[C@H](CO)[C@@H](O)[C@H](O)[C@H]3O)c(O)ccc12 [Puerarin] | inactive: -0.114 |
| Cc1cc(C)cc(C(=O)NOCCCCCC(=O)NO)c1 | active: -4.71 |
| CNC(=O)c1cc(COc2nnc(Nc3ccc(Cl)cc3)c3ccoc23)ccn1 [Telatinib] | inactive: 0.821 |
| CCCc1nc(C)c2c(=O)nc(-c3cc(S(=O)(=O)N4CCN(CC)CC4)ccc3OCC)[nH]n12 [Vardenafil HCl Trihydrate] | inactive: 0.0923 |
| O=C(O)/C=C/c1ccc(Cn2ccnc2)cc1 [Ozagrel] | inactive: 1.1 |
| O=C(O)/C=C/c1ccc(Cn2ccnc2)cc1 [Ozagrel HCl] | inactive: 0.354 |
| COc1cc2nccc(Oc3ccc(NC(=O)C4(C(=O)Nc5ccc(F)cc5)CC4)cc3)c2cc1OC | inactive: 1.28 |
| COc1cc2nccc(Oc3ccc(NC(=O)C4(C(=O)Nc5ccc(F)cc5)CC4)cc3)c2cc1OC [Cabozantinib malate (XL184)] | inactive: 1.14 |

From the supplement of paper PMC11348887
